Experimental data published in publication PMC12040169 (PLOS Biology, 2025).
Some of the results follow.

Tested on: T1, C. trachomatis L2/434/Bu expressing GFP (CTL2-GFP)
T1 construct: L2/434/Bu GFP intracellular growth in HeLa cells
Design: species or system HeLa; C. trachomatis total inclusion area by high-content imaging, normalised to DMSO
Details: total inclusion area; 28.5 h, 10 µM; inhibitor
How it was run: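 Host cell viability was gauged from Hoechst-stained nuclei counts, while chlamydial growth was taken from total inclusion area and inclusion number per well. Cells were fixed and imaged by high-content microscopy once bulk GFP and resorufin fluorescence had been measured.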

SMILES	% of control remaining
COc1ccc(CC(=O)N2CCC(c3cc4ccccc4cn3)C2)cc1 (stereo not shown) [CBK283421]	87.2029
CCCc1cc(=O)[nH]c(SCc2noc(-c3snnc3C)n2)n1 [CBK006474]	127.516
CCN1C(=O)c2ccccc2C(=O)[C@@]2(C)CN(CC(C)C)C[C@@H]12 [CBK283479]	78.8836
CCOC(=O)Cc1nnc(-c2ccc(Cl)cc2)[nH]1 [CBK021882]	98.4012
O=C(NCCc1ccncc1)c1cccs1 [CBK056969]	76.5584
Cc1cc(C(=O)N2CCN(Cc3ccc4c(c3)OCO4)CC2)nn1C [CBK074832]	101.565
O=C(Nc1cccnc1)N1CCN(c2ccc(F)cc2)CC1 [CBK156427]	91.0025
Cc1ccc2nc(-c3ccc(-c4ccc(C(C)C)cc4)o3)cc(C(=O)O)c2c1 [CBK300083]	43.5462
COc1ccccc1CN(C)S(=O)(=O)c1ccc(S(N)(=O)=O)cc1 [CBK306008]	90.7289
O=C1CCC(=O)N1CCOc1nccnc1N1CCN(Cc2ccc(Cl)c(Cl)c2)CC1 [CBK084287]	93.0852
Cc1nccn1Cc1ccccc1C(=O)NCCn1ccnc1 [CBK281580]	89.0883
O=C(O)c1csc(-c2ccc(Cl)cc2Cl)n1 [CBK067777]	102.338
Cc1cc2c(o1)c1cnn(CC(=O)N3CCCCC3)c(=O)c1n2C [CBK284217]	71.4048
CC(=O)N1CCCN(C(=O)c2ncoc2-c2ccc(F)cc2)CC1 [CBK282398]	95.5948
Cc1ccc(C(O)CN(C)Cc2c(C)nn(C)c2C)c(C)c1 (stereo not shown) [CBK282939]	101.246
Cc1coc(C)c1C(=O)CC1(O)C(=O)N(CCc2ccccc2)c2ccccc21 (stereo not shown) [CBK293975]	92.0532
CCc1ccc(/C=N/N2CCN(Cc3cccc4ccccc34)CC2)cc1 [CBK262986]	91.4293
Cc1cnc2c(Cl)c(C(=O)NCC(F)(F)F)nn2c1 [CBK307391]	45.894
OC1(Cn2ccc3ncccc32)CCN(Cc2ccccc2F)CC1 [CBK284752]	75.7231
Cc1cc(Cl)c(S(=O)(=O)Nc2ccc(Oc3ccccc3)cc2)cc1OCC(N)=O [CBK266583]	117.641
CCn1c(SCC(=O)Nc2ccc(OC)c(Cl)c2)nnc1-c1ccccc1O [CBK268021]	89.8395

SMILES	% of control remaining
COc1ccc2cc(/C=C(\C#N)c3nc(-c4cc5c(ccc6ccccc65)oc4=O)cs3)c(Cl)nc2c1 [CBK261636]	115.069
CC1(C)CC(=O)c2sc(NC(=O)Nc3ccccc3)nc2C1 [CBK287319]	93.801
N#CCNS(=O)(=O)c1ccc(OC(F)(F)F)cc1 [CBK044841]	83.8722
O=C(Nc1ccc(Cc2ccc(NC(=O)c3ccc(Br)cc3)c(O)c2)cc1O)c1ccc(Br)cc1 [CBK262086]	105.097
COc1ccc(C(=O)O)cc1S(=O)(=O)N1CCCCCC1 [CBK261742]	113.909
Cc1ccc(CN(CCCN(C)C)Cc2nccn2C)o1 [CBK282481]	100.127
O=C(CSc1ccccc1)Nc1cc(Cl)ccc1O [CBK265837]	130.416
COc1ccc(S(=O)(=O)NCCCn2ccnc2)cc1Cl [CBK269997]	97.9269
CCc1c(C)nc2ccccc2c1SCCC(=O)O [CBK116382C]	61.7319
CCCCOc1ccc(C=Cc2nc3sc(C(=O)O)c(C)c3c(=O)[nH]2)cc1 [CBK297524]	83.479
O=C(NCc1ccc(F)cc1)[C@H]1CN2CCC1C[C@@H]2Cn1cc(C2(O)CCCC2)nn1 (stereo partly shown) [CBK289093]	70.4906
COC(=O)c1cc(O)ccc1N [CBK002250]	23.3429
CC(/C=C1\SC(=S)N(C(Cc2ccccc2)C(=O)O)C1=O)=C\c1ccccc1 (stereo not shown) [CBK263524]	109.532
COc1ccc(OC)c(-c2ccc(NC(=O)c3ccc(Cl)cc3Cl)c(C(=O)O)c2)c1 [CBK000393D]	108.023
O=C(CC1CCCCC1)N1CCN(c2ncccn2)CC1 [CBK144529]	99.7216
CC(CC(=O)N1CCCC(c2cc3cccnc3[nH]2)C1)n1cccn1 (stereo not shown) [CBK284996]	94.5766
COCC(=O)N[C@H]1C[C@H]2C(=O)Nc3ccc(Br)cc3C(=O)N2C1 [CBK289357]	92.6789
S=C(NCCCN1CCOCC1)Nc1cccc(Cl)c1 [CBK263255]	98.0441
O=C1Nc2ccc(-c3ccccc3F)cc2C(=O)N2CCN(C(=O)c3cccnc3)C[C@H]12 [CBK289591]	76.4169
Cc1cc(C)n(CCN2CCC(N(C)Cc3nnc(C)n3C)C2)n1 (stereo not shown) [CBK304449]	32.7521
COc1cc(CN2CCC(C(=O)NC(c3ccc(Cl)cc3)c3ccsc3)CC2)cc(OC)c1 (stereo not shown) [CBK147962]	88.5232

SMILES	% of control remaining
CN(C(=O)c1cc(-c2cccs2)[nH]n1)c1ccccc1 [CBK288115]	103.282
CC1CCc2c(C(=O)N3CCC4(C3)NC(=O)NC4=O)csc2C1 (stereo not shown) [CBK304290]	95.6693
O=C(c1ccccc1)N1C[C@H](c2ccc(F)cc2)[C@H]2CN(CCc3ccccc3)CC[C@H]21 [CBK286291]	127.248
O=C(Nc1nc2c(s1)CCCCC2)C1CN(C(=O)Cc2ccc(F)cc2)C1 [CBK285904]	97.0159
COc1cc(CNc2nc(-c3cccc4ccccc34)cn3ccnc23)cc(OC)c1OC [CBK037397]	127.242
COc1ccc(NC(=O)c2cnc3sc(C)cn3c2=O)c(OC)c1 [CBK287712]	127.725
O=C(CCc1cccnc1)NC(Cc1ccsc1)c1nccs1 (stereo not shown) [CBK284665]	127.937
CC12CN(Cc3ccccc3)CC1NC(=O)c1ccccc1C2N (stereo not shown) [CBK282850]	77.3747
O=C(O)CC(NCc1ccco1)C(=O)Nc1cccc(F)c1 (stereo not shown) [CBK286910]	52.2274
O=[N+]([O-])c1ccccc1OCCCn1cnc2ccccc21 [CBK267820G]	50.9125
CC(C)(C)OC(=O)N1CCCC(C(=O)NC(C(N)=O)c2ccccc2)C1 (stereo not shown) [CBK305766]	24.3631
FC(F)(F)c1cccc(OCc2nnn[nH]2)c1 [CBK269466]	87.1299
O=C(O)c1cccc(NS(=O)(=O)CC(F)(F)F)c1 [CBK155712]	89.1305
COc1ccc(CN2CCN(c3ccccc3F)CC2)cc1OCc1ccccc1 [CBK261900]	98.9444
CCOc1cc(C)c(Cl)cc1S(=O)(=O)NCc1ccccn1 [CBK268047]	95.3853
COC(=O)N1CCN(c2ccccc2)CC1 [CBK200414]	92.9503
CN(C(=O)CN1C2CCC1CC(O)(c1ccco1)C2)C1CCCCC1 (stereo not shown) [CBK284108]	82.313
COc1ccc(CCNC(=S)N2CCN(c3ccccn3)CC2)cc1OC [CBK266897]	112.52
O=C1NC(c2cccnc2)Nc2sc3c(c21)CCCC3 (stereo not shown) [CBK072377]	106.259
CC(C)(C)NC(=O)CN1C(=O)N2CCCN=C2c2ccccc21 [CBK284404]	83.1638
CC1(OCCN2CCOCC2)SC(NC2CC3CCC2C3)=NC1=O (stereo not shown) [CBK116313]	100.451

SMILES	% of control remaining
Cc1noc2nc(C3CCN(C(=O)C(C)C)CC3)cc(C(F)F)c12 [CBK285305]	89.0602
CN1CCC(N[C@H]2C[C@@H](Cc3cc(CCO)on3)C2(C)C)CC1 [CBK289253]	89.1519
CCOCc1ccc(C(=O)N2CCNC(=O)C2Cc2ccc(-c3cccs3)cc2)cc1 (stereo not shown) [CBK285811]	70.1183
CCOC(=O)c1cccnc1-c1ccc(Cl)c(Cl)c1 [CBK149241]	97.152
CC(=O)Nc1ccc(S(=O)(=O)N2CCN(C(=O)COc3ccc(Br)cc3)CC2)cc1 [CBK264234]	130.956
O=C(Nc1cccc2[nH]ccc12)c1ccc(Cl)cc1 [CBK159632]	89.2961
Cc1nonc1CN(C)C(=O)C1CC2C=CC1C21CC1 (stereo not shown) [CBK282076]	90.4257
OCC(O)CN1CCCC1 (stereo not shown) [CBK015457]	50.6665
Cc1nc(C)n(CCc2nc3ccccc3[nH]2)n1 [CBK269364]	102.84
CC(C)/C=N/N=C1\NC(=O)CS1 [CBK023706]	89.7946
O=C(c1c(F)cccc1Cl)N1CCN(Cc2ccc3c(c2)OCO3)CC1 [CBK074724]	94.6747
c1ccc2cc(CCN3CCC(Oc4cncc(OCCN5CCOCC5)n4)C3)ccc2c1 (stereo not shown) [CBK084503]	101.028
CC(C)[C@H](CO)n1c(=O)[nH]c2ncc(-c3ccc(OC(F)(F)F)cc3)nc21 [CBK065037]	82.3034
O=C(Nc1ccccc1Cl)Nc1[nH]nc(O)c1Cc1c(Cl)cccc1Cl [CBK089367]	86.6536
CNC(=O)CN(C)Cc1c(C(=O)N2CCOCC2)nc2c(C)cccn12 [CBK307128]	86.7229
CCOc1cc(OCC)cc(C(=O)N2CCC3(CC2)CC(=O)c2cc(OCCN(C)C)ccc2O3)c1 [CBK169003T]	70.5115
CC(NC(=O)CSCc1ccco1)c1ccccc1 (stereo not shown) [CBK283237]	105.037
Cc1ccc(S(=O)(=O)N2CCC(C(=O)O)CC2)cc1C(=O)O [CBK266636]	111.499
Cc1ccc(S(=O)(=O)NC2c3cccc4cccc(c34)C2Sc2ccccn2)cc1 (stereo not shown) [CBK265840]	52.6682
